# The whole screen tested about 340,000 compounds, of which about 6,900 (2%) were called active. Rule as the data show it: active = inhibition above about 30%; inactive = below that, where a call was filed. This is a selection; strong and weak results do not stand in their true shares. Entries without a call were filed so in the source. Where a structure was tested more than once in an assay, its records may differ in their call.
# Biological target: D(2) dopamine receptor (Homo sapiens) (UniProt P14416)
# Sequence of UniProt P14416 (P14416 whole entry, looked up): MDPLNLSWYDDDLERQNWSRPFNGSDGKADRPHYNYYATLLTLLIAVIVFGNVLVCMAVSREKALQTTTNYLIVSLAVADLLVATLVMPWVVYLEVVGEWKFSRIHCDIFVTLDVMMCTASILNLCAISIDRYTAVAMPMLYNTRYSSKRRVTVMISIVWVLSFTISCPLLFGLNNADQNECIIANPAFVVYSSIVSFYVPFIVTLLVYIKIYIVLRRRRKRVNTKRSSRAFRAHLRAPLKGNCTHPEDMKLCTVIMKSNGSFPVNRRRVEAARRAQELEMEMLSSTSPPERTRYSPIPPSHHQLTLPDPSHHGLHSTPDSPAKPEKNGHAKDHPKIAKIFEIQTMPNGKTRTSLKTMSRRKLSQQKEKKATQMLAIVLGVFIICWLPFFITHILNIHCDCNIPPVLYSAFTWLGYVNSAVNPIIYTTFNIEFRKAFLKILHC
# Assay: HTS Assay for Allosteric Antagonists of the Human D2 Dopamine Receptor: Primary Screen for Antagonists; also: 0% is about no effect
# Conditions: HEK293 TREx D2 cells, calcium flux, dopamine EC80; at 10 µM; stronger effect = higher value
# Procedure, shortened: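 Read-out: kinetic calcium fluorescence (1 cycle/s) in inducible HEK293 T-REx D2 cells after an EC80 dopamine addition that followed 180 s compound preincubation. Loss of the dopamine response indicates antagonism.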
row,Structure (SMILES),inhibition
1,O=C(CCn1ccc2cc(S(=O)(=O)N3CCCC3)ccc21)NCc1cccc(F)c1,4.91%
2,COC(=O)CSc1nc(-c2ccc(F)cc2)cc(C(F)(F)F)n1,-16.2%
3,COc1cc(OC)c(C2Nc3ccccc3-c3nnc(SCc4ccccc4)nc3O2)cc1OC (configuration not stated),-20%
4,COc1ccc(OC)c(C2N=C(N)Nc3nc4ccccc4n32)c1 (configuration not stated),-25.5%
5,COc1ccc(NC(=O)Cn2c(=O)n(Cc3nc(C)no3)c(=O)c3cc4c(cc32)OCO4)cc1OC,-4.58%
6,Cc1cccc(C)c1-n1ncc(C(=O)NCCN2CCOCC2)c1C1CCN(C(=O)OC(C)(C)C)CC1,-8.4%
7,Cc1ccccc1Cn1c(=O)n(CCc2ccccc2)c(=O)c2c(C)c(C)sc21,0.1%
8,COc1ccc(-c2nc(CN3CCC(C(=O)NCCCOC(C)C)CC3)c(C)o2)cc1OC,-0.878%
9,COc1cccc(-n2cc(C(=O)NCc3ccccc3OC)c3ccccc3c2=O)c1,15.9%
10,CCc1cc2c(cc3c(=O)n(CC(=O)NCCc4ccc(OC)c(OC)c4)ncn32)s1,6.2%
11,COC(=O)c1cc(S(=O)(=O)NCC2CCN(Cc3cccc(F)c3)CC2)c[nH]1,10%
12,CCCc1cc(C(=O)Nc2c(C)nn(Cc3ccc(C)cc3)c2C)no1,-2.55%
13,O=C(CCn1c(=O)c2cccn2c2ccc(F)cc21)NCCc1ccccc1,18.3%
14,CCC(=O)N1CCc2cc(CNC(=O)C(CC)c3ccccc3)ccc21 (configuration not stated),-23.4%
15,Cc1ccc(C)c(Nc2cc(C(=O)NC3CCCCC3)c3ccccc3n2)c1,1.39%
16,O=C(NCc1ccc(Cl)cc1)C1CCCN(C(=O)c2cnn(-c3ccc(F)cc3)c2-n2cccc2)C1 (configuration not stated),1.35%
17,Cc1ccc(Nc2c(-c3cc(Br)ccc3F)nc3cc(C)ccn23)cc1,0.0339%
18,CCN(CC)S(=O)(=O)c1cc(-c2nnc(Nc3ccc(OC)c(C(N)=O)c3)c3ccccc23)ccc1C,-10.5%
19,Cc1ccc(NC(=O)c2cccc(N3CCCS3(=O)=O)c2)cc1,-18.5%
20,CCOc1ccc(NC(=O)N2CCC(CN3CCc4ccccc4C3)CC2)cc1,8.12%
21,COc1ccccc1NC(=O)Cn1c(=O)n(-c2ccc(C)cc2)c(=O)c2ccc(C(=O)NCc3ccco3)cc21,-7.18%
22,CCOCCCNC(=O)c1ccc(NC(=O)N2CCCCc3ccccc32)cc1,15%
23,Cc1c(NC(=O)c2ccc(Cl)cc2)cc(C(C)C)c(O)c1S(=O)(=O)c1ccc(Cl)cc1,-2.53%
24,COc1ccccc1N1CCN(c2ccc(=O)n(CC(=O)Nc3ccc(F)c(F)c3)n2)CC1,-13.6%
25,CCc1cccc(NC(=O)CCc2c(C)nc3c(c2C)c(=O)n(C)c(=O)n3C)c1,5.87%

row,Structure (SMILES),inhibition
1,O=C(NCc1cccnc1)c1nn(-c2ccccc2F)nc1CO,-1.13%
2,Cc1ccc(CNC(=O)CCSCc2ccccc2F)cc1,18.6%
3,Cc1cc(C)c2oc(C(=O)Nc3sc4c(c3C(=O)NCc3ccco3)CCCC4)cc(=O)c2c1,-15%
4,Cc1ccc(N(C(=O)COc2ccccc2C)S(=O)(=O)c2ccc(Cl)cc2)cc1,-8.85%
5,CC(C)N(Cc1ccccc1)c1ncnc2c1nnn2C,17.1%
6,COc1ccc(-c2cc(C(F)F)n3ncc(C(=O)N4CCN5CCCC5C4)c3n2)cc1 (configuration not stated),active: 51.8%
7,CCOc1ccc(C(c2c(O)cc(C)n(CCOC)c2=O)N2CCN(c3ccccc3F)CC2)cc1 (configuration not stated),-16.9%
8,Nc1cc(C(=O)OCC(=O)Nc2ccc(N3CCOCC3)cc2)ccc1Cl,active: 48%
9,CCCCC1CCC(C(=O)Nc2ccccc2N2CCOCC2)CC1 (configuration not stated),active: 33.1%
10,COCCCNC(=O)C(=O)NCC(c1ccc2c(c1)OCO2)N1CCOCC1 (configuration not stated),27.1%
11,COc1ccc(NC(=O)C2=C(C)Nc3nc(CCCO)nn3C2c2ccc(O)cc2)cc1 (configuration not stated),8.49%
12,Cc1ccc(C)c(S(=O)(=O)c2nnn3c2nc(N2CCOCC2)c2sccc23)c1,-14.4%
13,COC(=O)c1sccc1S(=O)(=O)N1CCN(c2ccccc2OC)CC1,9.45%
14,O=C(Nc1ccc2nc(SCCOc3ccccc3Cl)sc2c1)c1cccs1,-0.329%
15,Cc1ccc(-c2cc(C(=O)O)c3cc(Br)ccc3n2)s1,active: 31%
16,Cc1c(/C(Cc2ccccc2)=N/O)c2ccccc2n1C,active: 36.9%
17,COc1ccc(N2CC(C(=O)Nc3ccc(NC(C)=O)cc3)CC2=O)cc1 (configuration not stated),7.09%
18,COc1ccccc1-c1nnc(SCCOc2ccccc2C)o1,-5.06%
19,CCc1cccc(CC)c1NS(=O)(=O)c1ccc2c(c1)CCN2C(=O)C1CC1,2.33%
20,CC(C)c1ccc(S(=O)(=O)c2cnc(SCC(=O)Nc3cccc(C(F)(F)F)c3)nc2N)cc1,6.23%
21,CCOC(=O)c1cc(-c2ccc(OC)c(S(=O)(=O)Nc3ccc(OC)cc3OC)c2)on1,2.02%
22,Cc1ccc(CNC(=O)c2nnc(Cc3cccc(F)c3)o2)cc1,-15.1%
23,COc1ccc(-c2nc3ccccc3n2Cc2ccc(C(C)C)cc2)cc1,10%
24,Cc1ccccc1NC(=O)C1CCN(C(=O)c2ccc(F)cc2)CC1,-7.05%
25,CCOc1ccc(NC(=O)Cn2cc(C(=O)c3ccc(F)cc3)c(=O)c3cc4c(cc32)OCO4)cc1,-4.36%

row,Structure (SMILES),inhibition
1,CCOC(=O)N1CCC(NC(=O)c2cnn(-c3ccc(C)cc3)c2-n2cccc2)CC1,-9%
2,Cc1cccc(-c2nc3cc(NC(=O)c4ccc(OCC(C)C)cc4)ccc3o2)c1,0.541%
3,COc1ccc(NC(=O)c2cnc(N3CCOCC3)c3ccccc23)cc1OC,2.05%
4,Cc1ccn2c(c1)nc(=O)c1cc(S(=O)(=O)N3CCCCC3)ccc12,-7.76%
5,COc1cccc(CCNC(=O)c2ccc(Cn3c(SCc4ccccc4)nc4cccnc43)cc2)c1,-4.2%
6,CCOc1ccc(NC(=O)NC(C)c2c(-n3cccc3)sc3c2CCN(CC)C3)cc1 (configuration not stated),-21.2%
7,O=C(Nc1ccc2nc(SCCOc3ccccc3)sc2c1)c1ccco1,-22.1%
8,Cc1c(Cl)cccc1NC(=O)c1cc(-c2cccc(Cl)c2)on1,-11.9%
9,CC(C)C(=O)Nc1ccccc1C(=O)OCc1cc(=O)n2nc(C3CC3)sc2n1,10.8%
10,O=C(Nc1cccc(Br)c1)Nc1nc2c(s1)CCCCCC2,15.6%
11,O=C(CN1C(=O)c2cccnc2Oc2ccc(Cl)cc21)NCCCN1CCCCC1,-13.9%
12,COc1cc2c(C(=O)N3CCN(c4cccc(Cl)c4)CC3)cn(C)c(=O)c2cc1OC,-6.32%
13,Cc1nn2c(=O)cc(COC(=O)c3ccc(NC(=O)CCc4ccccc4)cc3)nc2s1,-8.27%
14,Cc1cccc(OCCn2c(SCC(N)=O)nc3ccccc32)c1,2.43%
15,COc1ccc(CCNC(=O)C(=O)NCC(c2ccco2)S(=O)(=O)c2cccs2)cc1 (configuration not stated),1.35%
16,CCC(Sc1nc2cc3c(cc2c(=O)n1CCCCCC(=O)NCc1ccc2c(c1)OCO2)OCO3)C(=O)NCCCOC (configuration not stated),2.33%
17,CC1Cc2cc(S(=O)(=O)CCC(=O)Nc3cccc(F)c3)ccc2N1C(=O)C1CC1 (configuration not stated),8.39%
18,CC(=O)Nc1ccc(S(=O)(=O)N2CCC(N3CCN(Cc4ccc(C)cc4)C(=O)C3=O)CC2)cc1,6.37%
19,Cc1cc(C)cc(NS(=O)(=O)c2cc3[nH]c(=O)c(=O)[nH]c3cc2C)c1,-14.4%
20,O=C(Cn1nnc(-c2ccc(C(F)(F)F)cc2)n1)NCCc1ccccc1,4.86%
21,CCOC(=O)C1CCC(CN(Cc2ccc(OC)cc2)S(=O)(=O)c2ccc(C)cc2)CC1 (configuration not stated),3.6%
22,CCc1ccc(CN(Cc2ccco2)c2cnc(S(C)(=O)=O)nc2C(=O)Nc2ccc(C)c(Cl)c2)cc1,9.94%
23,CCCC(=O)Oc1c(Sc2ccc(C)cc2)c(C)nn1-c1ccccc1,-7.31%
24,COc1cc(OC)c(C(=O)NCc2nc(-c3ccccc3)no2)cc1OC,-15.4%
25,O=C(Nc1cc(Cl)cc(Cl)c1)c1ccc(F)c(S(=O)(=O)N2CCCC2)c1,4.08%

row,Structure (SMILES),inhibition
1,NC(N)=Nc1cc2ccccc2c2ccccc12,active: 37.5%
2,Cc1ccc(NC(=O)CN(C)S(=O)(=O)c2cccc3cccnc23)c(C)c1,22.1%
3,COC(=O)c1ccccc1NC(=O)c1cc2ccccn2n1,7.43%
4,O=C(Cn1ncn2c(cc3cc(F)ccc32)c1=O)NC1CCCCC1,6.21%
5,Cc1oc2c(cc(NS(=O)(=O)c3ccc(Br)cc3)c3ccccc32)c1C(=O)OCc1ccccc1,-13.8%
6,CN(C)c1ccc(C(=O)Nc2sc(Nc3ccccc3)nc2C(N)=O)cc1,8.94%
7,OC(COc1ccc(Cl)cc1)CN1CCN(c2ccccc2)CC1 (configuration not stated),active: 71.4%
8,COc1ccc(Cn2c(CCC(=O)Nc3ccc(Br)c(C)c3)nc3cccnc32)cc1,7.07%
9,CCCCCn1c(=O)[nH]c2cc(C(=O)N3CCN(c4ccc(OC)cc4)CC3)ccc2c1=O,-8.06%
10,Cc1ccc(CN2CCC(CNC(=O)Nc3ccccc3F)CC2)cc1,-14.5%
11,COc1ccc(C)cc1Nc1nc2c(S(=O)(=O)c3cc(C)ccc3C)nnn2c2ccsc12,-5.01%
12,Cc1ccc(S(=O)(=O)N(C)C)cc1NC(=S)N(CCC#N)Cc1cccnc1,active: 43.5%
13,O=C(COc1ccc(Cl)cc1)NCCc1csc(-c2ccc(C(F)(F)F)cc2)n1,-10.1%
14,COCCNc1nc2c(S(=O)(=O)c3ccccc3)nnn2c2ccc(Cl)cc12,-7.83%
15,COc1cc2c(cc1NC(=O)COc1cc(C)cc(C)c1)oc1ccccc12,13.2%
16,CCn1c(CNc2ccc(Cl)cc2)nnc1SCCN1CCCCC1,active: 50%
17,COc1ccc(Cn2c(SCc3ccc(C(=O)NC4CCCCC4)cc3)nc3cccnc32)cc1,7.68%
18,COc1ccc(Nc2ncnc3scc(-c4ccc(F)cc4)c23)cc1,-18.4%
19,CC(=O)Nc1ccc2nc(SCCOc3ccc(C)cc3)sc2c1,-1.46%
20,COc1ccc(NC(=O)c2sc3nc(C)c(C(=O)Nc4ccc(C)cc4C)c(-c4sccc4C)c3c2N)cc1,-11.3%
21,COc1ccccc1-c1cc(C(F)(F)F)nc(S(=O)(=O)CCCC(=O)Nc2ccccc2F)n1,9%
22,CCOc1ccc(C2c3[nH]c4ccccc4c3CCN2C(=O)CSc2ccccc2)cc1 (configuration not stated),4.04%

# From PubChem BioAssay AID485344 (National Center for Advancing Translational Sciences (NCATS), 2010)
